Experimental findings from paper PMC4336329 (PLoS ONE, 2015) are described below.

The whole screen tested about 310,000 compounds, of which about 14,000 (4.5%) showed an effect of 50% or more. The effect is printed as a negative number. This is one part of the list.
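Further: peak tail current of the secondary pulse compared with the same well before compound.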

human ether-à-go-go-related gene (hERG) potassium channel, sequence (Q12809 whole entry, looked up): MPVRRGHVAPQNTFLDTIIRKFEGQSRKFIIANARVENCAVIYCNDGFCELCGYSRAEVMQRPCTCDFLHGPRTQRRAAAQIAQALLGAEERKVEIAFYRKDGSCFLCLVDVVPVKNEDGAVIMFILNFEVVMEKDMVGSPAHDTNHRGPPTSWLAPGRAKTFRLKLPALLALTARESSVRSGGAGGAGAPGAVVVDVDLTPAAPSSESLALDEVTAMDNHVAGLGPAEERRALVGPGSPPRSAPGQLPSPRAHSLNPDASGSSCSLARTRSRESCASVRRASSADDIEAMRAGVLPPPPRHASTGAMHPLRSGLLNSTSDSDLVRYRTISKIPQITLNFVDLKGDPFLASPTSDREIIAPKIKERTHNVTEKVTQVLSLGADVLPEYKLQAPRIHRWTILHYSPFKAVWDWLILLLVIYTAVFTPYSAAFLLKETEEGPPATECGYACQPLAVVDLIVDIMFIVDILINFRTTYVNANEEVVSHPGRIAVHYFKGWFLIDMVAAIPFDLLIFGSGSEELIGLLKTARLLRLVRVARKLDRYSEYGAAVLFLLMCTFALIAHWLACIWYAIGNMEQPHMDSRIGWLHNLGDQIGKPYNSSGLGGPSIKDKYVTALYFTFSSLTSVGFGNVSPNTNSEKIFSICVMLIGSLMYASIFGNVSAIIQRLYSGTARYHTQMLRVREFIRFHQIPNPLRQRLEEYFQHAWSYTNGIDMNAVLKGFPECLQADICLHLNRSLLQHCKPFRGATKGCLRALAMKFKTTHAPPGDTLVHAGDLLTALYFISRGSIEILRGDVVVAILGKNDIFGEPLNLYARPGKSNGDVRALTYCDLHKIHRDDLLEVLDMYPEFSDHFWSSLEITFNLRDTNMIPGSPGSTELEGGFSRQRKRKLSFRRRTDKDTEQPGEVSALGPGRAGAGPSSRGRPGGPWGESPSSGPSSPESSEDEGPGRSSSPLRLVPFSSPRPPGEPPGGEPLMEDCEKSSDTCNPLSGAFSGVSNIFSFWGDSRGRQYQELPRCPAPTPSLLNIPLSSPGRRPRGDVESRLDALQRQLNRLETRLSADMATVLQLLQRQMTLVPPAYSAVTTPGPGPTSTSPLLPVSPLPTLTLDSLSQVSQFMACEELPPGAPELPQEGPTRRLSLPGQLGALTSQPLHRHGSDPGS

This experiment concerns the target human ether-à-go-go-related gene (hERG) potassium channel (human, UniProt Q12809). Kind of experiment: primary screen, population patch clamp on CHO cells stably expressing hERG.
In the case of `O=C(CSc1nc(O)c(C2CCCCC2)c(=O)[nH]1)N1CCOCC1`, the “hERG current change (%, negative = inhibition) at 10uM” value was found to be 15.7%.
As for `COC(=O)c1cc(NC(=O)c2c(Cl)nc3sccn23)cc(C(=O)OC)c1`, the figure is 23.4%; as for `O=C(NCCCN1CCOCC1)c1ccc2c(c1)N(Cc1c(F)cccc1Cl)C(=O)CS2`, -21.4%; as for `O=C(NCC(=O)N(CC1CCCO1)C1(C(=O)NC2CCCCC2)CCCCC1)c1ccccc1` (stereo not drawn), 1.48%.
As to `Cc1cccc2c1cnn2C(=O)CCC(=O)N1CC(C)CC(C)C1` (stereo not drawn), the “hERG current change (%, negative = inhibition) at 10uM” value is -37.1%.
As for `O=C(O)CSc1ncnc2scc(-c3ccc(Br)cc3)c12`, the “hERG current change (%, negative = inhibition) at 10uM” value was -2.23%.
With `Cc1cc(=O)n(Cc2ccccc2)c2ccccc12`, the “hERG current change (%, negative = inhibition) at 10uM” value stood at 4.79%.
Regarding `CCOc1ccccc1C(=O)NCc1ccc2c(c1)OCO2`, the “hERG current change (%, negative = inhibition) at 10uM” value was -12.1%.
Consider `Cc1ccc(CSCc2ccc(C(=O)NCCC(C)C)o2)cc1`, for which the “hERG current change (%, negative = inhibition) at 10uM” value is given as -15.9%.
With `O=C(NC1c2ccccc2-c2ccccc21)N1CCOCC1`, the “hERG current change (%, negative = inhibition) at 10uM” value is on record as -12.9%.
Consider `C=CCN1C(=O)C(CC(=O)Nc2ccccc2)SC1=Nc1c(C)n(C)n(-c2ccccc2)c1=O` (stereo not drawn), for which the “hERG current change (%, negative = inhibition) at 10uM” value is given as -0.0305%.
For the molecule `COCCCN1C(=O)/C(=C/c2ccc(CNS(=O)(=O)c3ccccc3)o2)C(C(=O)OC)=C1C`, the “hERG current change (%, negative = inhibition) at 10uM” value came out at 3.9%.
As for `COc1cc([N+](=O)[O-])ccc1NC(=O)COC(=O)C=C(C)C`, the figure is -0.511%; as for `CCC(C)(C)NC(=O)C(c1cccn1C)N(C(=O)Cn1nnc2ccccc21)c1ccc(NC(C)=O)cc1` (stereo not drawn), -5.41%.
As to `COC(=O)c1cnn(-c2ccc(F)cc2F)c1/C=N/NC(=S)NC(C)(C)C`, the “hERG current change (%, negative = inhibition) at 10uM” value came out at 1.92%.
In the case of `O=C(COc1ccc(Cl)cc1Cl)NCCCNC(=O)c1cnccn1`, the “hERG current change (%, negative = inhibition) at 10uM” value is recorded as -56.5%.
As for `O=C(CN1C(=O)CCS(=O)(=O)c2ccccc21)Nc1ccc(F)cc1`, the “hERG current change (%, negative = inhibition) at 10uM” value turned out to be 11.9%.
As for `CCC(CC)NC(=O)Cc1ccc(F)cc1`, the figure is 13.9%.
In the case of `CCOC(=O)c1c(CN(CC)CC)oc2cc(Br)c(O)cc12`, the “hERG current change (%, negative = inhibition) at 10uM” value is on record as -79.8%.
To `CN(Cc1cn(C)nc1-c1ccc(Oc2ccccc2)cc1)C1CCOC1` (stereo not drawn) belongs -10.8%; to `O=C(Nc1ccc(Oc2cccnc2)cc1)C1CCN(Cc2ccccc2)CC1`, -75.1%; to `CCc1nnc(NC(=O)CCC(=O)N2CCN(S(=O)(=O)c3ccc(OC)cc3)CC2)s1`, 20.6%.
As for `O=C(Nc1ccccc1)C(Cl)C(=O)c1ccccc1` (stereo not drawn), the “hERG current change (%, negative = inhibition) at 10uM” value is on record as -9.25%.
To `CC1=CCC(C(=O)O)(C(=O)N/N=C/c2cccs2)C(c2ccc(F)cc2)C1` (stereo not drawn) belongs 0.214%; to `COc1ccc(Br)cc1CN1CCN(CCO)CC1`, -0.9%; to `CC1Cc2ccccc2N1C(=O)CSc1ncc(-c2ccc(F)cc2)n1C` (stereo not drawn), -45.7%.
For `O=C(O)CC/C(=C\c1cc([N+](=O)[O-])ccc1Cl)c1nc2ccccc2s1`, the “hERG current change (%, negative = inhibition) at 10uM” value is reported as -1.22%.
As to `CCCCn1c(-c2csc3c2CCC(C)C3)n[nH]c1=S` (stereo not drawn), the “hERG current change (%, negative = inhibition) at 10uM” value stood at 6.79%.
Regarding `Cc1cc(C)cc(OCC(=O)N/N=C/c2ccncc2)c1`, the “hERG current change (%, negative = inhibition) at 10uM” value is given as -5.51%.
As for `Cc1ccc(OCC(=O)NCc2cccnc2)cc1`, the “hERG current change (%, negative = inhibition) at 10uM” value was determined as 6.98%.
In the case of `Cc1c(-n2c(CN3C(=O)c4ccccc4C3=O)nc3ccccc3c2=O)c(=O)n(-c2ccccc2)n1C`, the “hERG current change (%, negative = inhibition) at 10uM” value was determined as 3.43%.
To `Cn1c(=O)cc(SCC(=O)N2CCC3(CC2)OCCO3)c2ccccc21` belongs -1.64%; to `Cc1ccc2c(c1)=C/C(=C\c1c(O)[nH]c(=O)[nH]c1=O)C(=O)N=2`, -20%.
As to `CCn1c(/C=C/N(C(C)=O)c2ccccc2)[n+](CC)c2ccc(Cl)cc21.[I-]`, the “hERG current change (%, negative = inhibition) at 10uM” value is 2.3%.
On to `CC(C)Oc1cccc(-c2cc(C(=O)N3CCN(S(C)(=O)=O)CC3)c3ccccc3n2)c1`, for which the “hERG current change (%, negative = inhibition) at 10uM” value is on record as -34.1%.
In the case of `CCCCSC(=S)NC1CCS(=O)(=O)C1` (stereo not drawn), the “hERG current change (%, negative = inhibition) at 10uM” value is -6.03%.
In the case of `CCOC(=O)Nc1ccc(S(=O)(=O)Nc2onc(C)c2C)cc1`, the “hERG current change (%, negative = inhibition) at 10uM” value is -1.17%.
To `Cc1ccccc1Cn1ccc(NC(=O)c2nn3cccnc3c2Cl)n1` belongs 7.31%.
As for `COc1ccccc1NC(=O)CCN1CCCCCC1.Cl`, the figure is 0.0165%; as for `COn1c(=O)c(-c2ccc(F)cc2)[n+]([O-])c2ccccc21`, 17.4%; as for `CSCCC(NC(=O)c1ccccc1Cl)C(=O)N1CCCCCCC1` (stereo not drawn), -6.4%.
As to `CCCS(=O)(=O)c1ccc(COC(=O)c2ccc(NC(C)=O)cc2)cc1`, the “hERG current change (%, negative = inhibition) at 10uM” value is on record as 17.3%.
Regarding `COc1ccc(C(c2nnnn2CC2CCCO2)N2CCC(C(N)=O)CC2)cc1` (stereo not drawn), the “hERG current change (%, negative = inhibition) at 10uM” value stood at 9.42%.
In the case of `COc1ccccc1C(=O)CSc1n[nH]c(N)n1`, the “hERG current change (%, negative = inhibition) at 10uM” value is recorded as 21.9%.
For `COc1cc(C(CC(=O)N2CCN(c3ccccc3)CC2)c2c(OC)cc(OC)c3ccc(=O)oc23)cc(OC)c1OC` (stereo not drawn), the “hERG current change (%, negative = inhibition) at 10uM” value is reported as -29%.
On to `CCn1c(-c2csc3c2CCCC3)n[nH]c1=S`, for which the “hERG current change (%, negative = inhibition) at 10uM” value worked out at 16.9%.
Consider `O=C1CSC(c2ccccn2)N1c1ccccc1F` (stereo not drawn), for which the “hERG current change (%, negative = inhibition) at 10uM” value is 22.6%.
For the molecule `Cc1ccc(-c2ccc(CCC(=O)O)o2)cc1`, the “hERG current change (%, negative = inhibition) at 10uM” value came out at 14.5%.
As to `Cc1cc(C)c(S(=O)(=O)N2CCCCC2CCNC(=O)C(=O)NCc2cccnc2)c(C)c1` (stereo not drawn), the “hERG current change (%, negative = inhibition) at 10uM” value is -41.7%.
`CCOC(=O)c1ccccc1NC(=O)CC1SC(=NC)N(C)C1=O` (stereo not drawn): the “hERG current change (%, negative = inhibition) at 10uM” value was found to be 3.8%.
Turning to `CCCN(CC(=O)Nc1ccccc1C)C(=O)/C=C/c1ccc(S(=O)(=O)N2CCCCCC2)cc1`, the “hERG current change (%, negative = inhibition) at 10uM” value is on record as -5.42%.
Regarding `Cn1c(-c2ccccc2)c(/C=N/NC(=O)c2cccnc2)c2ccccc21`, the “hERG current change (%, negative = inhibition) at 10uM” value is on record as 18.5%.
To `Cc1onc(-c2c(Cl)cccc2Cl)c1C(O)c1ccc(F)cc1` (stereo not drawn) belongs -30.4%.
On to `CSc1cnc2c(N)nc(N(C)C)nc2n1`, for which the “hERG current change (%, negative = inhibition) at 10uM” value is 2.74%.
Consider `Cc1cc(-c2n[nH]c(=S)n2/N=C/c2c[nH]c3ccccc23)n[nH]1`, for which the “hERG current change (%, negative = inhibition) at 10uM” value is given as 16.3%.
For the molecule `COc1ccc(-c2nc(CN3CCN(C(=O)c4ccco4)CC3)c(C)o2)cc1OC`, the “hERG current change (%, negative = inhibition) at 10uM” value was 1.8%.
For the molecule `COc1ccc(CNC(=O)c2cc3c(C)nc4ccccc4c3o2)c(OC)c1`, the “hERG current change (%, negative = inhibition) at 10uM” value is given as -8.06%.
